# Data taken from PMC5836133.
# Some of the results follow. At the low end of the ranking the order means little.
# Test system: T1, GST-NbGlk1(82-244)
# T1 sequence: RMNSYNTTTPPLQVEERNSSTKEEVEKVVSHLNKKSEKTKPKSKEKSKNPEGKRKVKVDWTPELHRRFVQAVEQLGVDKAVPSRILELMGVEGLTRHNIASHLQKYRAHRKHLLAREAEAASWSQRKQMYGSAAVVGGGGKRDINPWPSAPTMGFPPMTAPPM
# Assay: protein-binding microarray;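 further: rank-based score ranging −0.5 to +0.5 with E above 0.45 taken as significant binding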
# Conditions: NbGlk1 is a Golden2-like transcription factor of Nicotiana benthamiana; high values mean tight binding; most listed sequences are background and not binding sites; double strand, one strand shown
row,Sequence,binding signal [E-score]
1,ACTTATCT,0.152
2,ACTCCACT,-0.177
3,AGTTCTCG,-0.206
4,ATGTGCCC,-0.132
5,CAAGGCGA,-0.129
6,ACCCGCTG,-0.182
7,ATCGTCCG,0.147
8,CACACCTC,-0.0197
9,AGATAAGG,0.0581
10,ACCCGAAT,0.17
11,CAGATCTG,0.38
12,AAAATTGC,0.104
13,AACAAGCG,-0.0394
14,ATCCAGTG,0.221
15,CAAGTGTC,-0.139
16,AGTAAACA,-0.143
17,ACCCCAAA,-0.099
18,ACCCTATA,0.0308
19,ATGGCTGA,-0.117
20,AAGTAGCA,-0.0251
21,ACAGCAGT,-0.25
22,ATGCACCA,0.0187

row,Sequence,binding signal [E-score]
1,ACTCGGCT,-0.11
2,AAACATAT,0.113
3,AAATTACG,0.317
4,ACACCAAT,-0.00147
5,AATCGTGG,0.286
6,ACTTGCTG,-0.039
7,ATCCACAG,0.192
8,ACTTAAGG,-0.122
9,AGAATACA,0.0913
10,AAATCGTC,0.354
11,AAAGGTCC,-0.27
12,ACAAAGTG,-0.0272
13,ACCTGTAG,-0.101
14,AACCTATA,-0.0739
15,AATTGCCT,-0.0441
16,AATTGGGC,-0.189
17,AGAGTTGA,-0.161
18,AAGGGTAA,-0.0144
19,AAAACCTT,0.0251
20,AAAATTCT,0.195
21,AGTGCTGG,-0.0693
22,AGAAGCTG,-0.0242

row,Sequence,binding signal [E-score]
1,AAAAAAGG,-0.0292
2,ACTCTCTG,-0.1
3,ATGCACTG,-0.0208
4,ACGTACCT,-0.12
5,AGTTCCCG,-0.186
6,AATTACAT,0.173
7,ACGGGACT,-0.201
8,AGCGTAGC,-0.195
9,AGTAAAAC,0.0902
10,ATATAGAG,0.231
11,ACGAGATA,0.275
12,ACGCCACT,-0.206
13,ATTCGACC,-0.089
14,CAGCGCGC,-0.109
15,ACTTTAGG,-0.11
16,AGGTGGCA,-0.233
17,AGCAGCCA,-0.165
18,CACTTTGC,-0.101
19,AGCCCGTG,-0.182
20,CAAGCATG,-0.158
21,ACCACCTG,-0.183
22,AGTTTGAC,-0.0264

row,Sequence,binding signal [E-score]
1,ACACAAAT,0.204
2,ACTTACCA,0.00853
3,ACACGCGG,-0.222
4,AATCGGGG,0.327
5,ATTTCAGC,0.188
6,ATTTTCCG,0.332
7,CAATGCGA,-0.0546
8,AAGTATCA,0.151
9,ATAATGAC,0.12
10,AGAACGGC,-0.166
11,ATCATAAA,0.232
12,AAAATCTG,0.478
13,AATTGTCA,-0.0837
14,CAAGGCCC,-0.247
15,AAGGCCGC,-0.28
16,ACTGGCAC,-0.39
17,AATAAACA,0.0909
18,AAGTCCCC,-0.237
19,ATCTTTCA,0.247
20,ATGCCCGA,-0.0881
